# Source: the supplement of paper PMC2702839
# Counter-ions that a name gives are not always drawn. This is one part of the list.
# Test system: Schistosoma mansoni schistosomula
# Assay: phenotypic hit in primary schistosomula screen (any phenotype vs DMSO control) (binary (1 = hit, 0 = no phenotype)); higher = active (phenotype induced)
# Details: 1 µM; time (d): 7
row,Structure (SMILES),phenotypic hit
1,"COc1cc(OC)c2c(=O)c(O)c(-c3ccc(OC)c(OC)c3)oc2c1 [quercetin tetramethyl (5,7,3',4') ether]",inactive: 0
2,O=C(O)CCCCCCCCCCCC[C@@H]1C=CCC1 [chaulmoogric acid],inactive: 0
3,C=CC1=C(C)c2cc3[nH]c(cc4nc(cc5[nH]c(cc1n2)c(C)c5CCC(=O)O)C(CCC(=O)O)=C4C)c(C)c3C=C [protoporphyrin ix],inactive: 0
4,CN(C)CCN(Cc1ccccc1)c1ccccn1 [Tripelennamine hydrochloride],inactive: 0
5,Clc1ccc(CSC(Cn2ccnc2)c2ccc(Cl)cc2Cl)cc1 (centres undefined) [sulconazole nitrate],inactive: 0
6,Nc1ncnc2c1ncn2[C@@H]1O[C@H](CO)[C@@H](O)[C@H]1O [adenosine],inactive: 0
7,"COc1ccc2c(c1)OCC(Cc1ccc(O)c(OC)c1)C2=O (centres undefined) [deoxysappanone b 7,3'-dimethyl ether]",inactive: 0
8,C[n+]1cc2c3c(ccc2c2ccc4cc5c(cc4c21)OCO5)OCO3 [Sanguinarine chloride],active: 1
9,CN1CCc2c(c3ccccc3n2Cc2ccccc2)C1 [mebhydrolin naphthalenesulfonate],inactive: 0
10,Fc1ccc(C(c2ccc(F)cc2)N2CCN(C/C=C/c3ccccc3)CC2)cc1 [Flunarizine dihydrochloride],inactive: 0
11,CCCCC(=O)O[C@H]1CC[C@H]2[C@@H]3CCc4cc(O)ccc4[C@H]3CC[C@]12C [estradiol valerate],inactive: 0
12,COc1ccc(/C=C/C(=O)O)cc1OC [dimethylcaffeic acid],active: 1
13,N=C(N)c1ccc(OCCCCCOc2ccc(C(=N)N)cc2)cc1 [Pentamidine isethionate],inactive: 0
14,O=C(OC[C@H]1O[C@@H](OC(=O)c2cc(O)c(O)c(OC(=O)c3cc(O)c(O)c(O)c3)c2)[C@H](OC(=O)c2cc(O)c(O)c(OC(=O)c3cc(O)c(O)c(O)c3)c2)[C@@H](OC(=O)c2cc(O)c(O)c(OC(=O)c3cc(O)c(O)c(O)c3)c2)[C@@H]1OC(=O)c1cc(O)c(O)c(OC(=O)c2cc(O)c(O)c(O)c2)c1)c1cc(O)c(O)c(OC(=O)c2cc(O)c(O)c(O)c2)c1 [tannic acid],inactive: 0
15,Cc1cc(O)c(C)c(O)c1C(=O)O [3-methylorsellinic acid],inactive: 0
16,CC1(C)S[C@@H]2[C@H](NC(=O)[C@H](N)c3ccc(O)cc3)C(=O)N2[C@H]1C(=O)O [amoxicillin],inactive: 0
17,"COc1cc(-c2coc3cc(OCc4ccccc4)c(OC)c(O)c3c2=O)cc(OCc2ccccc2)c1OC [irigenin, dibenzyl ether]",inactive: 0
18,Cc1cccc(C(=O)O)c1O [hydroxytoluic acid],inactive: 0
19,CN[C@@H]1[C@H](O[C@H]2[C@H](O[C@H]3[C@H](O)[C@@H](O)[C@H](N=C(N)N)[C@@H](O)[C@@H]3N=C(N)N)O[C@@H](C)[C@]2(O)C=O)O[C@@H](CO)[C@H](O)[C@H]1O [streptomycin sulfate],inactive: 0
20,CC1(C)C(=O)C=C[C@]2(C)[C@H]3CC[C@@]4(C)[C@H](c5ccoc5)OC(=O)[C@H]5O[C@]54[C@]3(C)C(=O)C[C@@H]12 [deacetoxy-7-oxogedunin],inactive: 0

row,Structure (SMILES),phenotypic hit
1,"OC1=Cc2c(O)cc(O)cc2OC1(O)c1ccc(O)c(O)c1 (centres undefined) [2,3,5,7,3',4'-pentahydroxyflavan]",inactive: 0
2,C[C@]12CCC(=O)C=C1CC[C@@H]1[C@@H]2[C@@H](O)C[C@@]2(C)[C@H]1CC[C@]2(O)C(=O)CO [hydrocortisone],inactive: 0
3,Oc1ncnc2[nH]ncc12 [Allopurinol],inactive: 0
4,COC(=O)CC1C(C)(C)C(=O)C2CC3(O)C4=CC(=O)OC(c5ccoc5)C4(C)CCC3C1(C)C2=O (stereo not drawn) [8beta-hydroxycarapin],inactive: 0
5,CN(N=O)C(=O)N[C@H]1C(O)O[C@H](CO)[C@@H](O)[C@@H]1O (mixture of isomers) [streptozosin],inactive: 0
6,CCCc1cc(=O)[nH]c(=S)[nH]1 [propylthiouracil],inactive: 0
7,Cc1onc(-c2ccccc2)c1-c1ccc(S(N)(=O)=O)cc1 [valdecoxib],inactive: 0
8,"O=C(O[C@@H]1Cc2c(O)cc(O)cc2O[C@@H]1c1cc(O)c(O)c(O)c1-c1c([C@H]2Oc3cc(O)cc(O)c3C[C@H]2O)cc(O)c(O)c1O)c1cc(O)c(O)c(O)c1 [2',2'-bisepigallocatechin monogallate]",inactive: 0
9,C[N+]1(CCCCC[N+]2(C)CCCC2)CCCC1 [pentolinium tartrate],inactive: 0
10,Cc1cc(C(C)(C)C)c(O)c(C)c1CC1=NCCN1 [Oxymetazoline hydrochloride],inactive: 0
11,CC(=O)OC1CCC2(C)C(CCC3C2CCC2(C)C3CC3OC4(CCC(C)CO4)C(C)C32)C1 (centres undefined) [neotigogenin acetate],inactive: 0
12,CN(C)CCCN1c2ccccc2Sc2ccccc21 [promazine hydrochloride],active: 1
13,C=CC(C1=CC(=O)C=CC1=O)c1ccccc1 (centres undefined) [dalbergione],inactive: 0
14,C[N+]1(C)C[C@H](O)C[C@H]1C(=O)[O-] [betonicine],inactive: 0
15,COc1ccc([C@@H]2CC(=O)c3c(O)cc(O[C@@H]4O[C@H](CO[C@@H]5O[C@@H](C)[C@H](O)[C@@H](O)[C@H]5O)[C@@H](O)[C@H](O)[C@H]4O)cc3O2)cc1O [hesperidin],inactive: 0
16,COc1c2ccoc2c(OC)c2oc(=O)ccc12 [isopimpinellin],inactive: 0
17,COc1ccc2c(c1)OC1(O)COc3cc(OC)c(OC)cc3C1=C2 (centres undefined) [12a-hydroxy-5-deoxydehydromunduserone],inactive: 0
18,C[N+]1(C)[C@@H]2CC[C@H]1C[C@@H](OC(=O)C(O)c1ccccc1)C2 (some centres undefined) [homatropine methylbromide],inactive: 0
19,COc1ccc2c(=O)c(-c3cc4c(cc3OC)OCO4)coc2c1 [cuneatin methyl ether],inactive: 0
